# PubChem BioAssay AID1347417 (National Center for Advancing Translational Sciences (NCATS), 2020)
# Among all 120,000 compounds or so, about 5,300 (4.4%) were called active. This list was built around the results that the source calls inconclusive (neither active nor inactive); the mix of calls is not that of the screen. Calls come from the whole dose curve; as a rule, active = well fitted inhibition curve with a large enough effect; inconclusive = small, poorly fitted or top-dose-only effect; inactive = no such curve, though single readings can be large or run the other way. A potency beside an inconclusive call is a rough fit, not a confirmed value.
# Experiment: qHTS Primary assay for Inhibitors of Plasmodium falciparum Dd2 growth in vitro; note: nearly all actives have a fitted effect of over 65% in size
# Settings: P. falciparum Dd2 growth, SYBR Green, 72 h; series mostly up to 28.9 µM
# Method in brief: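 Infected erythrocytes (Dd2, 0.3% parasitemia, 2.5% hematocrit final) are added to compound in RPMI-1640/Albumax II medium, grown 72 h at 37C in low oxygen, then lysed with saponin/Triton-X containing SYBR Green and read by fluorescence.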
# Potency is the fitted concentration of half-maximal effect; tags give direction and shape of the fitted curve.
row,Structure (SMILES),Potency
1,CC(C)CN(C)C(=O)c1cc(-c2cnn(C(C)C)c2)nc2ccc(F)cc12,"inconclusive: 8.91 µM [inhibitor, partial curve, poor fit]"
2,Cn1nc(C(=O)N2CCCN(c3cc(-c4ccccc4)[nH]n3)CC2)c2ccccc21,inactive
3,CCCS(=O)(=O)Nc1ccc(=O)n2c1[C@@H]1C[C@@H](CN(S(=O)(=O)c3ccc(OC)cc3)C1)C2,inactive
4,CCc1ccc(NC(=O)c2sc3nc(C)c(Cl)c(C)c3c2N)cc1,"inconclusive: 17.8 µM [inhibitor, single point]"
5,O=C(Cn1c(-c2cccs2)cc2cc(Cl)ccc21)N1CCN(c2ccccc2)CC1,"inconclusive: 17.8 µM [inhibitor, single point]"
6,COc1cccc(N2CC(C(=O)NC3CC3)NC2=O)c1 (centres undefined),inactive
7,Cc1c(Cl)cccc1NC(=O)C(C)n1c(=O)cc(-c2ccccc2)c2c(C)nn(C)c21 (centres undefined),inactive
8,COc1cncc(Nc2cnc3ccc(N(C)Cc4ccc(F)cc4)nn23)c1,inactive
9,Cc1noc(C)c1[S+](=O)([O-])N1CCC2(CCN(Cc3cccs3)c3ccccc3O2)CC1,"inconclusive: 1.12 µM [inhibitor, full curve, poor fit]"
10,CCO[C@H]1CN(C(=O)c2cccc(-c3cccc(F)c3)c2)C[C@@H]1O,inactive
11,Cc1csc(CNC(=O)C2CCCN(C3CCN(Cc4cccnc4)CC3)C2)n1 (centres undefined),inactive
12,Cc1onc(C(=O)N2CCC(CCOc3ccc(F)cc3)C2)c1Cn1cc(Cl)cn1 (centres undefined),inactive
13,CN(C)C[C@@H]1CN(Cc2cccnc2)C[C@H]1NC(=O)COc1ccccc1,inactive
14,CCOc1cccc(CN2C[C@@H](NC(=O)COC)C[C@H]2CO)c1,inactive
15,O=C(NC1CCN(c2ccccc2)C1=O)c1cccc(Br)c1 (centres undefined),inactive
16,O=C(O)C1(Oc2ccccc2)CCN(c2cc(NCCO)ncn2)CC1,inactive
17,CCCN1C(=O)C(O)(CC(=O)c2ccc(CC)cc2)c2ccccc21 (centres undefined),"inconclusive: 14.1 µM [inhibitor, single point]"
18,CCCCS(=O)(=O)Nc1ccc([C@H]2OCC(=O)N(Cc3ccc(F)cc3)[C@@H]2CO)cc1,inactive
19,COc1cc2c(cc1Oc1ccccc1)NC(=O)C21CCN(Cc2cccc(O)c2)CC1,"inconclusive: 5.62 µM [inhibitor, full curve, poor fit]"
20,CCc1nc(CN2CCN(Cc3ccc(C)o3)C(CCO)C2)c(C)[nH]1 (centres undefined),inactive
21,CN1C[C@H](C(=O)Nc2cccc(F)c2)C[C@H]1c1cccc(C(F)(F)F)c1,"inconclusive: 15.8 µM [inhibitor, partial curve, poor fit]"
22,COc1ccc(-c2onc(C)c2C)cc1S(=O)(=O)NCC1CCN(Cc2ccccc2F)CC1,"inconclusive: 11.2 µM [inhibitor, single point]"
23,O=C(c1ccco1)N1CCCC(n2cc(-c3nc(C4CC4)no3)nn2)C1 (centres undefined),inactive

row,Structure (SMILES),Potency
1,CC1CCN(C[C@H]2CN3CC[C@H]2C[C@@H]3CNS(C)(=O)=O)CC1,inactive
2,Cc1nn(-c2ccc(F)cc2)c(Oc2ccc(F)cc2F)c1CCC(=O)N1CCSCC1,"inconclusive: 2.51 µM [inhibitor, single point]"
3,CC(CNC(=O)Cn1ccc2cc(S(=O)(=O)N3CCCCCC3)ccc21)c1ccccc1 (centres undefined),"inconclusive: 10 µM [inhibitor, single point]"
4,COc1ccc(Cl)cc1NC(=O)CN(C)S(=O)(=O)c1ccc2c(c1)CCCN2C(C)=O,"inconclusive: 11.2 µM [inhibitor, single point]"
5,CC1=C[C@@H](CNCc2cccnc2)[C@H](C(C)C)C[C@H]1Cc1nnc(-c2ccc([N+](=O)[O-])cc2)o1,"inconclusive: 0.126 µM [inhibitor, full curve, poor fit]"
6,O=C(CC(c1cccs1)N1Cc2ccccc2C1=O)Nc1ccc(F)c(Cl)c1 (centres undefined),inactive
7,C=CCC(CC=C)(CNC(=O)C(=O)Nc1cccc(C(F)(F)F)c1)c1ccccc1,"inconclusive: 17.8 µM [inhibitor, single point]"
8,COc1ccccc1N1CCCc2ncc(C(=O)N3CCC[C@@H]3c3ccc(F)cc3)cc21,"inconclusive: 2.51 µM [inhibitor, full curve, poor fit]"
9,CCC1=C(C(=O)OC)C(c2ccc(C)cc2)N2C(CC(=O)N3CCCC3)=CSC2=N1 (centres undefined),"inconclusive: 0.158 µM [inhibitor, full curve, poor fit]"
10,Cc1cccc(C)c1-n1ncc(C(=O)NCCN2CCOCC2)c1C1CCN(C(=O)OC(C)(C)C)CC1,"inconclusive: 17.8 µM [inhibitor, single point]"
11,O=C(c1cccs1)N1CCC(N2C(=O)C(OCC3CC3)C23CCCCC3)CC1 (centres undefined),"inconclusive: 11.2 µM [inhibitor, single point]"
12,COc1cccc(CNc2ncnc3c2CN(C2CCCNCC2)C(=O)CN3C)c1 (centres undefined),inactive
13,CC(=O)c1cc(CN2CCC(n3nccc3NC(=O)Cc3ccccc3)CC2)cs1,"inconclusive: 17.8 µM [inhibitor, single point]"
14,Cc1ccc2c(C(=O)Nc3ccc(Cl)nc3)cnn2c1,inactive
15,CCN1CCN(CCNC(=O)c2cccc3c2CCN3C(=O)Nc2ccc(C)cc2)CC1,"inconclusive: 11.2 µM [inhibitor, single point]"
16,CCOC(=O)C1(Cc2ccccc2F)CCCN(C(=O)c2ccc3c(c2)OCCO3)C1 (centres undefined),inactive
17,COc1cccc(-n2cc(C(=O)NCc3ccccc3OC)c3ccccc3c2=O)c1,"inconclusive: 10 µM [inhibitor, single point]"
18,O=C(NCc1cccc(Br)c1)c1noc(-c2ccc(F)cc2)n1,inactive
19,Cn1nc(C(=O)N2CCC3(CCCN(C4CCOCC4)C3=O)C2)ccc1=O (centres undefined),inactive
20,CCNC(=O)[C@@H]1C[C@H](NC(=O)c2cc(C)nn2C)CN1C(=O)c1cc[nH]c1,inactive
21,CCC1CCc2nc3sc(C(=O)Nc4ccc(F)c(Cl)c4)c(N)c3cc2C1 (centres undefined),inactive
22,COCCNC(=O)C[C@@H]1C[C@H]2O[C@H](CNC3CCCC3)[C@@H](O)[C@H]2O1,inactive
23,Cc1cccc(-c2nn3c(=O)cc(CN4CCN(S(=O)(=O)c5ccc(Cl)cc5)CC4)nc3s2)c1,active: 8.91 µM

row,Structure (SMILES),Potency
1,CCOc1ccc2c(n1)CCN(C(=O)Cc1ccc(OC)cc1)C2,"inconclusive: 7.94 µM [inhibitor, single point]"
2,COCCNC(=O)c1ccc(-c2ccc(N3CCCCCC3)nc2)cc1,inactive
3,O=C(NCc1cccnc1N1CCOCC1)c1n[nH]c2c1CCCC2,"inconclusive: 12.6 µM [inhibitor, partial curve, poor fit]"
4,O=C(NCCN1CCCCC1)c1ccc(-c2ccc(N3CCSCC3)nc2)cc1,"inconclusive: 1.41 µM [inhibitor, full curve, poor fit]"
5,CN1[C@@H](CCC(=O)NCc2cccs2)CNC(=O)[C@@H]2[C@H]1CCN2Cc1cccc(Cl)c1,"inconclusive: 8.91 µM [inhibitor, single point]"
6,Cc1ccc(C)c(NC(=O)CCn2nc(C)c3c(C)n(-c4ccccc4)nc3c2=O)c1,"inconclusive: 3.16 µM [inhibitor, partial curve]"
7,CN(CC[C@@H]1CC[C@H](O)[C@@H](C(=O)N(C)Cc2ccccc2)O1)Cc1ccccc1,"inconclusive: 0.891 µM [inhibitor, partial curve, poor fit]"
8,COc1ccc(C(=O)NCC(=O)N2CCCCCCNC(=O)CC2c2ccccc2)c(OC)n1 (centres undefined),active: 8.91 µM
9,COC(=O)[C@@H]1Cc2ncn(Cc3ccc(Cl)cc3)c2CN1S(=O)(=O)c1cccc(C(F)(F)F)c1,"inconclusive: 12.6 µM [inhibitor, partial curve]"
10,CCOc1ccc(NC(=O)N2CCC(CN3CCc4ccccc4C3)CC2)cc1,inactive
11,CCCNC(=O)NCC1Cn2cccc2CN1Cc1ccccc1 (centres undefined),"inconclusive: 17.8 µM [inhibitor, single point]"
12,CN1CCCC1c1nc(C2CN(C(=O)CCCc3c[nH]c4ccccc34)C2)no1 (centres undefined),"inconclusive: 10 µM [inhibitor, partial curve, poor fit]"
13,Cc1noc(C)c1C(=O)N1Cc2ccccc2CC2(CCCN2C)C1 (centres undefined),"inconclusive: 12.6 µM [inhibitor, single point]"
14,Cc1noc2nc(C(C)C)cc(C(=O)NC3CCCc4c3[nH]c3ccccc43)c12 (centres undefined),"inconclusive: 17.8 µM [inhibitor, single point]"
15,Cn1nc(C2CCCN2)c2c(C(=O)NCc3ccncc3)cc(C3CC3)nc21 (centres undefined),inactive
16,O=C(c1cccs1)N1CCC(N2C(=O)C3(CCCCC3)C2c2ccncc2)CC1 (centres undefined),"inconclusive: 7.94 µM [inhibitor, partial curve, poor fit]"
17,CSc1ccc(NC2=N[C@H]3[C@@H](O)[C@H](O)C[C@H](C(=O)NCCN4CCOCC4)[C@H]3S2)cc1,inactive
18,Cc1ccc(Nc2c(-c3cc(Br)ccc3F)nc3cc(C)ccn23)cc1,"inconclusive: 17.8 µM [inhibitor, single point]"
19,Cc1ccc(NC(=O)C2CCN(C(=O)c3ncn4c3COC(c3ccc(F)cc3)C4)CC2)c(F)c1 (centres undefined),inactive
20,CCOc1ccc(CC(=O)NC2CCN(c3cc(-c4ccc(F)cc4)[nH]n3)CC2)cc1OCC,"inconclusive: 3.98 µM [inhibitor, single point]"
21,c1cc2c(cc1N1CCC(N[C@H]3C[C@@H]4OCC[C@H]34)CC1)CCC2,inactive
22,FC(F)(F)c1ccc(N2C3CCC2CN(Cc2cccs2)C3)cc1,inactive
23,COc1ccc(CCC(=O)N2CCCN(c3cc(-c4ccc(Br)cc4)[nH]n3)CC2)cc1,inactive
